Measurements as given in patent US20250368649A1, “TETRAHYDROPYRIDOPYRIMIDINE PAN-KRAS INHIBITORS” (Mirati Therapeutics, Inc., priority 2022, published 2025).

Tests used:
[1] = biological target: KRas G12S (Homo sapiens, UniProt P01116, G12S); assay type: binding; conditions: for inhibition at 0.01 µM: single point, 10 nM compound, read-out: Binding to KRas (% inhibition at 10 nM) G12S
[2] = test system: H460 cells; test: Inhibition of KRas-mediated phosphorylation of ERK (Cisbio HTRF pERK), H460 cells; assay type: cell-based; conditions: Homo sapiens; for IC50: NCI-H460, 3 h, 3 hr compound incubation, Cisbio pERK HTRF; for inhibition at 0.1 µM: NCI-H460, single point at 100 nM, 3 hrs compound incubation
[3] = biological target: KRas WT (Homo sapiens, UniProt P01116); test: KRas binding assay (TR-FRET displacement), KRas WT; conditions: for inhibition at 0.01 µM: single point, 10 nM compound
[4] = test system: PSN1 cells; test: Inhibition of KRas-mediated phosphorylation of ERK (Cisbio HTRF pERK), PSN1 cells; assay type: cell-based; conditions: Homo sapiens, PSN1, 3 h, 3 hour compound incubation, Cisbio pERK HTRF
Procedure: (§1) Inhibition of KRas Phosphorylation of ERK (HTRF) by Exemplary Compounds of Formula (I) Cisbio HTRF Advanced pERK Assay Catalog #64AERPEH • Cells: MKN1, PSN1 • Procedure: • Day 1: Seed 6,000 cells/well -25 µl/well in 384-well white solid bottom plate; RPM1_10% FBS.

[5] = biological target: KRas G13D (Homo sapiens, UniProt P01116, G13D); assay type: binding; conditions: for inhibition at 0.01 µM: single point, 10 nM compound, read-out: Binding to KRas (% inhibition at 10 nM) G13D
[6] = test system: H358 cells; test: Inhibition of KRas-mediated phosphorylation of ERK (Cisbio HTRF pERK), H358 cells; assay type: cell-based; conditions: Homo sapiens; for IC50: NCI-H358, 3 h, 3 hr compound incubation, Cisbio pERK HTRF; for inhibition at 0.1 µM: NCI-H358, single point at 100 nM, 3 hrs compound incubation
[7] = test system: H727 cells; test: Inhibition of KRas-mediated phosphorylation of ERK (Cisbio HTRF pERK), H727 cells; assay type: cell-based; conditions: Homo sapiens; for IC50: NCI-H727, 3 h, 3 hr compound incubation, Cisbio pERK HTRF; for inhibition at 0.1 µM: NCI-H727, single point at 100 nM, 3 hrs compound incubation
[8] = biological target: KRas G12A (Homo sapiens, UniProt P01116, G12A); assay type: binding; conditions: for inhibition at 0.01 µM: single point, 10 nM compound, read-out: Binding to KRas (% inhibition at 10 nM) G12A
[9] = test system: ASPC1 cells; test: Inhibition of KRas-mediated phosphorylation of ERK (Cisbio HTRF pERK), ASPC1 cells; assay type: cell-based; conditions: Homo sapiens, AsPC-1 cells; for IC50: ASPC1, 3 h, 3 hr compound incubation, Cisbio pERK HTRF; for inhibition at 0.1 µM: ASPC1, single point at 100 nM, 3 hrs compound incubation
[10] = biological target: KRas Q61H (Homo sapiens, UniProt P01116, Q61H); test: KRas binding assay (TR-FRET displacement), KRas Q61H; conditions: for inhibition at 0.01 µM: single point, 10 nM compound
[11] = test system: A549 cells; test: Inhibition of KRas-mediated phosphorylation of ERK (Cisbio HTRF pERK), A549 cells; assay type: cell-based; conditions: Homo sapiens; for IC50: A549, 3 h, 3 hr compound incubation, Cisbio pERK HTRF; for inhibition at 0.1 µM: single point at 100 nM, 3 hrs compound incubation
[12] = test system: MKN1 cells; test: Inhibition of KRas-mediated phosphorylation of ERK (Cisbio HTRF pERK), MKN1 cells; assay type: cell-based; conditions: Homo sapiens, MKN-1, 3 hour compound incubation
Procedure: as §1

[13] = test system: HCT116 cells; test: Inhibition of KRas-mediated phosphorylation of ERK (Cisbio HTRF pERK), HCT116 cells; assay type: cell-based; conditions: Homo sapiens; for IC50: HCT-116, 3 h, 3 hr compound incubation, Cisbio pERK HTRF; for inhibition at 0.1 µM: HCT-116, single point at 100 nM, 3 hrs compound incubation
[14] = biological target: KRas G12C (Homo sapiens, UniProt P01116, G12C); assay type: binding; conditions: for inhibition at 0.01 µM: single point, 10 nM compound, read-out: Binding to KRas (% inhibition at 10 nM) G12C

Row | SMILES | inhibition at 0.01 µM [1] [%] | IC50 [2] [nM] | inhibition at 0.1 µM [2] [%] | inhibition at 0.01 µM [3] [%] | IC50 [4] [nM] | inhibition at 0.01 µM [5] [%] | IC50 [6] [nM] | inhibition at 0.1 µM [6] [%] | IC50 [7] [nM] | inhibition at 0.01 µM [8] [%] | IC50 [9] [nM] | inhibition at 0.01 µM [10] [%] | IC50 [11] [nM] | inhibition at 0.1 µM [11] [%] | IC50 [12] [nM] | IC50 [13] [nM] | inhibition at 0.1 µM [13] [%] | inhibition at 0.01 µM [14] [%] | further results
1 | CCc1c(F)ccc2cc(O)cc(N3CCc4c(nc(OC[C@@]56CCCN5C[C@H](F)C6)nc4N4CCCn5nc(C(=O)N6CC7CCC(C6)O7)cc5C4)C3)c12 [Example 333, 8-oxa-3-azabicyclo[3.2.1]octan-3-yl(5-(7-(8-ethyl-7-fluoro-3-hydroxynaphthalen-1-yl)-2-(((2R,7aS)-2-fluorohexahydro-1H-pyrrolizin-7a-yl)methoxy)-5,6,7,8-tetrahydropyrido[3,4-d]pyrimidin-4-yl)-5,6,7,8-tetrahydro-4H-pyrazolo[1,5-a][1,4]diazepin-2-yl)methanone] | 99 | 10 | 98 | 98 | 3660 | 98 | 2 | 100 | 8 | 98 | 2 | 98 | 8 | 74 | 2.6 | 32 | 88 | 99 | inhibition at 0.1 µM [7]: 89%; inhibition at 0.1 µM [9]: 102%
2 | CCc1c(F)ccc2cc(O)cc(N3CCc4c(nc(OC[C@@]56CCCN5C[C@H](F)C6)nc4N4CCCn5nc(NC)c(Br)c5C4)C3)c12 [Example 394, 4-(4-(3-bromo-2-(methylamino)-7,8-dihydro-4H-pyrazolo[1,5-a][1,4]diazepin-5(6H)-yl)-2-(((2R,7aS)-2-fluorohexahydro-1H-pyrrolizin-7a-yl)methoxy)-5,6-dihydropyrido[3,4-d]pyrimidin-7(8H)-yl)-5-ethyl-6-fluoronaphthalen-2-ol] | 80 | 79 |  | 65 | > 10000 | 70 |  | 80 | 109 | 71 | 28 | 63 |  | 57 | 49.4 | 257 |  | 88 | 
3 | CCc1c(F)ccc2cc(O)cc(N3CCc4c(nc(OC[C@@]56CCCN5C[C@H](F)C6)nc4N4CCCn5nc(C(=O)N6CC7CC(C6)O7)cc5C4)C3)c12 [Example 327, 6-oxa-3-azabicyclo[3.1.1]heptan-3-yl(5-(7-(8-ethyl-7-fluoro-3-hydroxynaphthalen-1-yl)-2-(((2R,7aS)-2-fluorohexahydro-1H-pyrrolizin-7a-yl)methoxy)-5,6,7,8-tetrahydropyrido[3,4-d]pyrimidin-4-yl)-5,6,7,8-tetrahydro-4H-pyrazolo[1,5-a][1,4]diazepin-2-yl)methanone] | 96 | 56 | 66 | 92 | 3610 | 96 | 3 | 97 | 3 | 83 | 3 | 96 | 17 | 88 | 6.6 | 114 | 47 | 99 | 
4 | O=S1(=O)CCC2(CCCN(c3nc(OC[C@@]45CCCN4C[C@H](F)C5)nc4c3CCN(c3cc(O)cc5ccc(F)c(Cl)c35)C4)C2)C1 (stereo partly drawn) [Example 465, 7-(7-(8-chloro-7-fluoro-3-hydroxynaphthalen-1-yl)-2-(((2R,7aS)-2-fluorohexahydro-1H-pyrrolizin-7a-yl)methoxy)-5,6,7,8-tetrahydropyrido[3,4-d]pyrimidin-4-yl)-2-thia-7-azaspiro[4.5]decane 2,2-dioxide] | 93 |  | 54 | 92 | 903 | 96 |  | 66 | 154 | 77 | 68 | 96 |  | 46 | 16 |  | 25 | 97 | 
5 | O=C1NC(=O)[C@]2(CCCN(c3nc(OC[C@@]45CCCN4C[C@H](F)C5)nc4c3CCN(c3c(C5CC5)c(Cl)cc5[nH]ncc35)C4)C2)N1 [Example 470, (R)-7-(7-(6-chloro-5-cyclopropyl-1H-indazol-4-yl)-2-(((2R,7aS)-2-fluorohexahydro-1H-pyrrolizin-7a-yl)methoxy)-5,6,7,8-tetrahydropyrido[3,4-d]pyrimidin-4-yl)-1,3,7-triazaspiro[4.5]decane-2,4-dione] | 99 | 151 | 39 | 99 | 1840 | 99 | 27 | 77 | 50 | 97 | 362 | 99 | 283 | 33 | 1.5 | 264 | -5 | 98 | IC50 ([1]; TR-FRET displacement, read-out: Binding to KRas (IC50 nM) G12S): < 2 nM; IC50 ([3]; TR-FRET displacement): < 2 nM; IC50 ([5]; TR-FRET displacement, read-out: Binding to KRas (IC50 nM) G13D): < 2 nM; IC50 ([8]; TR-FRET displacement, read-out: Binding to KRas (IC50 nM) G12A): < 2 nM; IC50 ([10]; TR-FRET displacement): < 2 nM; IC50 ([14]; TR-FRET displacement, read-out: Binding to KRas (IC50 nM) G12C): < 2 nM
6 | CCc1c(F)ccc2cc(O)cc(N3CCc4c(nc(OC[C@@]56CCCN5C[C@H](F)C6)nc4N4CCCn5nc(C(=O)NC)c(F)c5C4)C3)c12 [Example 362, 5-(7-(8-ethyl-7-fluoro-3-hydroxynaphthalen-1-yl)-2-(((2R,7aS)-2-fluorohexahydro-1H-pyrrolizin-7a-yl)methoxy)-5,6,7,8-tetrahydropyrido[3,4-d]pyrimidin-4-yl)-3-fluoro-N-methyl-5,6,7,8-tetrahydro-4H-pyrazolo[1,5-a][1,4]diazepine-2-carboxamide] | 99 | 56 | 60 | 96 | 2640 | 95 | 7 |  | 11 | 97 | 5 | 95 | 20 |  | 11.2 | 172 | 27 | 99 | 
7 | CCc1c(F)ccc2cc(O)cc(N3CCc4c(nc(OC[C@@]56CCCN5C[C@H](F)C6)nc4N4CCCn5nc(C(=O)N6CC7CC(C7)C6)cc5C4)C3)c12 [Example 330, 3-azabicyclo[3.1]heptan-3-yl(5-(7-(8-ethyl-7-fluoro-3-hydroxynaphthalen-1-yl)-2-(((2R,7aS)-2-fluorohexahydro-1H-pyrrolizin-7a-yl)methoxy)-5,6,7,8-tetrahydropyrido[3,4-d]pyrimidin-4-yl)-5,6,7,8-tetrahydro-4H-pyrazolo[1,5-a][1,4]diazepin-2-yl)methanone] | 96 | 30 | 60 | 91 | 6080 | 91 | 8 | 98 | 16 | 87 | 7 | 91 | 8 | 80 | 14.5 | 117 | 27 | 97 | inhibition at 0.1 µM [7]: 77%; inhibition at 0.1 µM [9]: 94%
